Laboratory results: PubChem BioAssay AID588591 (National Center for Advancing Translational Sciences (NCATS), 2011)
Several values for one entry are separate records, joined by “and”; a condition that tells them apart may be missing. Identical values can stand only once. About 4,700 (1.2%) of roughly 390,000 compounds were called active. The inconclusive results got no clear call from the source; some entries with a clear call stand among them for comparison. Calls come from the whole dose curve; as a rule, active = well fitted inhibition curve with a large enough effect; inconclusive = small, poorly fitted or top-dose-only effect, or another doubt; inactive = no such curve, though single readings can be large or run the other way. Where the call is inconclusive, the potency comes from a doubtful curve fit.

molecular target: DNA polymerase eta (Homo sapiens) (UniProt Q9Y253); experiment: qHTS for Inhibitors of Polymerase Eta; conditions: recombinant Pol eta, fluorescent DNA replication assay; series mostly up to 114 µM; activity change, negative = inhibition: at the top concentration
Chain of UniProt Q9Y253 (Q9Y253 whole entry, looked up): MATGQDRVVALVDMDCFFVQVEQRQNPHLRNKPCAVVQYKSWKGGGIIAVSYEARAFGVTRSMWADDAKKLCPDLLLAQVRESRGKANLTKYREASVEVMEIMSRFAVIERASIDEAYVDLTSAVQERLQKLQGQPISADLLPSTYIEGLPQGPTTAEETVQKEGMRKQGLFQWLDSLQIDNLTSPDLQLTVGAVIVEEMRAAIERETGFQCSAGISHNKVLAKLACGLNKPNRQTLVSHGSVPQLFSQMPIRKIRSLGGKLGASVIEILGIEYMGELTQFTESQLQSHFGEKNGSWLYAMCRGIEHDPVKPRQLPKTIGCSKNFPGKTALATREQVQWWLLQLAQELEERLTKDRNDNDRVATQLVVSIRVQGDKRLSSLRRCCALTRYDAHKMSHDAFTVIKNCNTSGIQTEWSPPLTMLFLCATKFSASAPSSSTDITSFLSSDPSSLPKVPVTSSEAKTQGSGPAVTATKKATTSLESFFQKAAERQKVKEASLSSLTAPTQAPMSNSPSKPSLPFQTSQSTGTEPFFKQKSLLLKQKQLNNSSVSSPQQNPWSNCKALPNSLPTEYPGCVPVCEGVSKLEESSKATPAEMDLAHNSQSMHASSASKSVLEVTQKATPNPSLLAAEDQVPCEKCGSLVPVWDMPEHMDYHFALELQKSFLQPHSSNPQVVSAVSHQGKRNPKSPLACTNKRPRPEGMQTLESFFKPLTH
Method in brief: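 Pol eta (10 nM) was preincubated with compounds for 15 min at room temperature, after which fluorescent replication substrate (50 nM final) was added to start the reaction. Fluorescence was read kinetically at 0 and 10 min.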
% is set by controls: 0 for no effect and ±100 for the full control effect; potency is the fitted concentration of half-maximal effect; tags give direction and shape of the fitted curve.

Row | SMILES | Potency | activity change, negative = inhibition
1 | COC(=O)c1ccccc1NC(=O)CCS(=O)(=O)c1ccc(Br)cc1 | active: 3.55 µM | 
2 | CCOC(=O)C1=C(Cc2ccc(OC)cc2)C(=O)c2ccccc2C1=O | inconclusive: 89.1 µM [inhibitor, single point] | 
3 | O=C(/C=C/c1ccc(Br)o1)OCc1nc2ccsc2c(=O)[nH]1 | active: 0.794 µM | 
4 | Nc1cccc(/C=C/C(=O)O)c1 | inconclusive: 89.1 µM [inhibitor, partial curve, poor fit] | 
5 | Cc1ccc(S(=O)(=O)N(CC(=O)Nc2cccnc2)c2ccccc2C)cc1 |  | inactive: -21.8%
6 | Cc1ccccc1NC(=O)Cn1c(O)c(N=NC(=O)c2ccccc2O)c2ccccc21 | inconclusive: 7.94 µM [inhibitor, full curve, poor fit] | 
7 | Cc1cc(=O)[nH]c(N/N=C2/CCCC/C2=C\c2ccccc2)n1 | inconclusive: 89.1 µM [inhibitor, partial curve, poor fit] | 
8 | CC(=O)Nc1ccc(S(=O)(=O)/N=C2/NC(=O)/C(=C\c3ccco3)S2)cc1 | active: 20 µM | 
9 | CCCc1cc(=O)oc2c3c(cc(OCC(=O)NCc4ccccn4)c12)OC(C)(C)CC3 | inconclusive: 89.1 µM [inhibitor, partial curve, poor fit] | 
10 | CC1(C)CC(=O)C=C(c2ccc(-c3cnc4ccccc4c3)cc2)C1=O |  | inactive: -22.9%
11 | O=S(=O)(Nc1ccc(N=Nc2ccc(O)c3ccccc23)cc1)c1ccccc1 | inconclusive: 28.2 µM [inhibitor, partial curve, poor fit] | 
12 | COCCN1CC(CNC(=O)c2cc(COc3ccccc3SC)on2)CC1=O (stereo unspecified) |  | inactive: -15.5%
13 | CC1C/C(=C/c2ccncc2)C(=O)/C(=C/c2ccncc2)C1 (stereo unspecified) | active: 31.6 µM | 
14 | CCC(C(=O)Nc1cc(-c2nc3cccnc3s2)ccc1C)c1ccccc1 (stereo unspecified) |  | inactive: 5.98%
15 | Cc1cc(/C=N\O)c(C)n1-c1ccncc1 | inconclusive: 28.2 µM [inhibitor, partial curve, poor fit] | 
16 | O=C(O)C1C2C=CC3(O2)C1C(=O)N1c2ccccc2C2OCCC2C13 (stereo unspecified) | active: 35.5 µM | 
17 | CC(C)N(C(=O)Nc1ccc2nsnc2c1)C(C)C | active: 8.91 µM | 
18 | C=Cc1c(C)c2cc3[nH]c(cc4nc(cc5nc(cc1[nH]2)C(C)=C5CCC(=O)O)C(CCC(=O)O)=C4C)c(C)c3C=C | active: 794 nM and active: 2 µM and active: 4.47 µM | 
19 | COc1ccc(C(=O)/C=C/c2ccsc2)cc1CSCC(=O)O | active: 20 µM | 
20 | COc1ccc2nc3sc(C(=O)NCCN4CCc5ccccc5C4)cc3cc2c1 | inconclusive: 22.4 µM [inhibitor, partial curve, poor fit] | 
21 | Cc1onc(-c2ccccc2Cl)c1C(=O)Nc1sc2c(c1C#N)CCC2 | inconclusive: 15.8 µM [inhibitor, partial curve, poor fit] | 
22 | CCC(=O)Oc1ccc2c(C)cc(=O)oc2c1C | inconclusive: 14.1 µM [inhibitor, partial curve] | 
23 | Cc1ccc(S(=O)(=O)N(C)c2ccc(OCC(=O)O)cc2)cc1 | inconclusive: 20 µM [inhibitor, partial curve, poor fit] | 

Row | SMILES | Potency | activity change, negative = inhibition
24 | Cc1ccc(C(=O)NCc2ccco2)o1 | inconclusive: 14.1 µM [inhibitor, full curve, poor fit] | 
25 | Cc1cc(C)nc(NS(=O)(=O)c2ccc(NC(=O)COc3ccc(C(C)(C)C)cc3)cc2)n1 |  | inactive: -12.3%
26 | Nc1c(Cl)ncnc1N/N=C/c1ccc2ccccc2n1 | inconclusive: 20 µM [inhibitor, full curve, poor fit] | 
27 | c1coc(-c2nc3nc4ccccc4n3nc2-c2ccco2)c1 | inconclusive: 14.1 µM [inhibitor, partial curve] | 
28 | O=C(CSc1nccn1Cc1ccccc1)NCc1ccccc1Cl |  | inactive: -7.61%
29 | C=CCSc1nnc(NC(=O)CCNC(=O)c2ccco2)s1 | inconclusive: 3.55 µM [inhibitor, full curve, poor fit] | 
30 | O=C(CSc1nc2ccccc2s1)CSc1nc2ccccc2s1 | inconclusive: 56.2 µM [inhibitor, partial curve, poor fit] | 
31 | COc1ccc(-c2nnc(C)c3nocc23)cc1 | inconclusive: 56.2 µM [inhibitor, partial curve] | 
32 | COc1cc([N+](=O)[O-])ccc1NC(=S)N1CCOCC1 |  | inactive: -11.9%
33 | CCOc1cc(/C=C2/C(=O)N(c3ccccc3)N=C2C)ccc1OC(=O)c1cccs1 |  | inactive: -9.84%
34 | COCCN(C(=O)COC(=O)Cc1coc2cc3c(cc12)CCC3)c1c(N)n(Cc2ccccc2)c(=O)[nH]c1=O | active: 20 µM | 
35 | CCN(Cc1ccccc1)S(=O)(=O)c1c(C)[nH]c(C)c1C(=O)N1CCCC1 | inconclusive: 7.94 µM [inhibitor, full curve] | 
36 | Cc1nnsc1C(=O)N/N=C/c1ccc2ccccc2c1O | inconclusive: 25.1 µM [inhibitor, partial curve] | 
37 | Cc1ccc(S(=O)(=O)Cc2ccc(C(=O)NC3CCCCCC3)o2)cc1 |  | inactive: -8.73%
38 | NS(=O)(=O)c1ccc(CCNC(=O)c2ccc3nccnc3c2)cc1 | active: 3.16 µM | 
39 | COc1ccc(CCNC(=O)c2ccc(Cl)cc2)cc1OC |  | inactive: 5.42%
40 | O=C(COC(=O)c1cccc(Br)c1)NCc1ccco1 | active: 79.4 µM | 
41 | CCc1noc(-c2ccc(N3CCCCC3C)c([N+](=O)[O-])c2)n1 (stereo unspecified) |  | inactive: -17.3%
42 | Cc1cc(C)c(NC(=O)Cc2ccc(-n3cccc3)cc2)c(C)c1 | inconclusive: 15.8 µM [inhibitor, partial curve, poor fit] | 
43 | Nc1c(C(=O)Nc2ccc(C(=O)O)cc2)sc2nc3c(cc12)CCCC3 | inconclusive: 100 µM [inhibitor, partial curve, poor fit] | 
44 | CCNc1nc(NCC)n2c(SCC(=O)Nc3cccc(F)c3)nnc2n1 | inconclusive: 35.5 µM [inhibitor, partial curve, poor fit] | 
45 | Cc1[nH]c2ccccc2c1C(=O)C(C)OC(=O)C1CCC1 (stereo unspecified) | inconclusive: 100 µM [inhibitor, partial curve, poor fit] | 
46 | Cc1cccc(C(=O)Nc2nnc(S(=O)(=O)N(C)Cc3ccco3)s2)c1 | inconclusive: 89.1 µM [inhibitor, single point] | 
